According to PubChem BioAssay AID588342 (National Center for Advancing Translational Sciences (NCATS), 2011):
Several values for one entry are separate records, joined by “and”; a condition that tells them apart may be missing. Equal entries are not always repeated. Out of some 360,000 compounds screened, about 25,000 (6.9%) were called active. The inconclusive results got no clear call from the source; some entries with a clear call stand among them for comparison. Calls follow the shape of the dose curve; as a rule, active = well fitted inhibition curve with a large enough effect; inconclusive = small, poorly fitted or top-dose-only effect; inactive = flat fitted curve, though single readings scatter. Where the call is inconclusive, the potency comes from a doubtful curve fit.
Also: nearly all actives have a fitted effect of over 55% in size.
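For activity change, negative = inhibition in this document: plate controls were vehicle for no effect and reference inhibitor for full effect.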
Potency is read from the fitted curve at half-maximal effect; tags tell the direction and shape of the fitted curve.

The compounds below were run against Luciferin 4-monooxygenase (Photinus pyralis) (UniProt P08659) (assay: qHTS profiling assay for firefly luciferase inhibitor/activator using purifed enzyme and Km concentrations of substrates (counterscreen for miR-21 project)). Details: purified FLuc, luminescence inhibition; series mostly up to 57.5 µM; activity change, negative = inhibition: at the top concentration.
Sequence of UniProt P08659 (P08659 whole entry, looked up): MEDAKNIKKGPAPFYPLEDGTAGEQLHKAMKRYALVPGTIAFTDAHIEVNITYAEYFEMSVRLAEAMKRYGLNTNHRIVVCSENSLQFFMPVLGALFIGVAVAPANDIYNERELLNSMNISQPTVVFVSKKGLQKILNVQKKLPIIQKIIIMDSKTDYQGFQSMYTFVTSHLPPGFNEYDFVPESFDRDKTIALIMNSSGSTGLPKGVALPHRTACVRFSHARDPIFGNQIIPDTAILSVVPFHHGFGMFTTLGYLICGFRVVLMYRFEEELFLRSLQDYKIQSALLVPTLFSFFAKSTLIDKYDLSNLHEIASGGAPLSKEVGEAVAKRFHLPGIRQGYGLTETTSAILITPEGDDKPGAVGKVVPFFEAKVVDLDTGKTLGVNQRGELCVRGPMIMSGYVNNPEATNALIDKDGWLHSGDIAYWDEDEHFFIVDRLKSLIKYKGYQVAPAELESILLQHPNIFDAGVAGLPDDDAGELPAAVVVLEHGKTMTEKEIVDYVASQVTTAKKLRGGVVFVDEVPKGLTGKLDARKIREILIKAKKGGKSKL
Method in brief: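 Biochemical qHTS of compounds, final roughly 60 µM downward over six points, against 10 nM purified firefly luciferase using Km concentrations of substrates (10 uM D-luciferin, 10 uM ATP) in Tris acetate pH 7.5 buffer; luminescence output.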
With `O=C(O)CSc1nnc(-c2ccc(O)cc2)o1` the Potency was inconclusive: 23.9 µM [inhibitor, partial curve, poor fit]. In the case of `Cc1cccc(/N=C/c2nc(-c3ccccc3Br)oc2O)n1`, the Potency is reported as active: 7.57 µM. `COc1cccc(-c2nnc(-c3ccc(C(F)(F)F)cc3)o2)c1` was tested, and the Potency was inconclusive: 37.9 µM [inhibitor, single point]. `CCCCc1nc(S(=O)(=O)c2ccc(Cl)cc2)c(N2CCOCC2)o1` was tested, and the Potency was inconclusive: 21.3 µM [inhibitor, single point]. `O=C(CCn1c2c(c3ccccc31)CCCC2)NNC(=O)c1ccccc1C(=O)O` was tested, and the Potency was active: 26.9 µM. For `Cc1ccc(OC/C(=N\O)C(C)(C)C)c([N+](=O)[O-])c1`, the Potency was inconclusive: 26.9 µM [inhibitor, partial curve, poor fit]. In the case of `CCc1ccc2nc(N)sc2c1`, the Potency is reported as active: 10.7 µM. For `CC(=O)c1cccc(NC(=O)C2C3C=CC(C3=C(c3ccccc3)c3ccccc3)C2C(=O)O)c1` (stereo unspecified), the Potency was inconclusive: 23.9 µM [inhibitor, partial curve]. For `O=C(Oc1cccc2c(O)cccc12)c1ccccc1`, the Potency was inconclusive: 26.9 µM [inhibitor, single point]. In the case of `O=C(CNc1ccc2ccccc2c1)N/N=C/c1ccc(C(=O)O)cc1`, the Potency is reported as active: 26.9 µM. With `O=C(Nc1nc2ccsc2c(=O)s1)c1ccc(F)cc1Cl` the Potency was active: 0.536 µM. In the case of `CCc1nnc(NC(=S)Nc2ccccc2)s1`, the Potency is reported as inconclusive: 10.7 µM [inhibitor, partial curve]. In the case of `CCCCOC(=O)C1CN(c2ccccc2)N=C1C(C)=O` (stereo unspecified), the Potency is reported as inconclusive: 0.0095 µM [inhibitor, partial curve, poor fit]. `Cc1ccc(N2C(=O)c3ccccc3C2=O)cc1` was tested, and the Potency was inconclusive: 10.7 µM [inhibitor, partial curve, poor fit]. With `CCN(CC)c1ccc(NS(=O)(=O)c2ccc(-c3coc(C)n3)cc2)c(C)c1` the Potency was inconclusive: 21.3 µM [inhibitor, partial curve, poor fit]. `COc1ccc(-c2ccnc(SCC(=O)N3CCOCC3)n2)cc1` was tested, and the Potency was inconclusive: 26.9 µM [inhibitor, single point]. For `Cc1ccc(Oc2nc3ccccn3c(=O)c2/C=C(\C#N)c2nc3ccccc3s2)c(C)c1`, the Potency was inconclusive: 8.49 µM [inhibitor, partial curve]. In the case of `COc1cccc(/C=N/NC(=O)c2ccccc2)c1OS(=O)(=O)c1ccccc1`, the Potency is reported as inconclusive: 26.9 µM [inhibitor, single point]. `CCN1CCN(CCNC(=O)c2ccc(/C=C3/Sc4ccccc4N(Cc4ccccc4C)C3=O)cc2)CC1` was tested, and the Potency was inconclusive: 37.9 µM [inhibitor, partial curve, poor fit]. For `CCN(CC)c1cccc(OC(=O)c2cccnc2Cl)c1`, the Potency was inconclusive: 23.9 µM [inhibitor, partial curve]. `O=C(c1ccco1)N1CCN(C(=S)Nc2ccc(Br)cc2Cl)CC1` was tested, and the “activity change, negative = inhibition” value was inactive: -3%. In the case of `O=C(NNC(=S)Nc1ccc(Cl)cc1)c1cccs1`, the Potency is reported as inconclusive: 23.9 µM [inhibitor, single point]. For `O=C(COC(=O)c1cc(S(=O)(=O)N2CCOCC2)ccc1F)Nc1ccc(Cl)cn1`, the “activity change, negative = inhibition” value was inactive: 5.21%. For `OC[C@H]1OC(Nc2ccc(N=Nc3ccccc3)cc2)[C@@H](O)[C@@H](O)[C@@H]1O` (stereo partly specified), the Potency was inconclusive: 23.9 µM [inhibitor, single point]. For `c1cncc(CNc2cccc(-c3nc4ccccc4[nH]3)c2)c1`, the Potency was active: 7.57 µM. `O=C(Cn1cnc2ccccc21)Nc1cccc([N+](=O)[O-])c1` was tested, and the “activity change, negative = inhibition” value was inactive: -0.366%. `Cc1ccc(NC(=O)C2CCC(CNS(=O)(=O)c3ccc4c(c3)CCCC(=O)N4)CC2)c(C)c1` (stereo unspecified) was tested, and the “activity change, negative = inhibition” value was inactive: -5.34%. `CC1=Nc2ccc(C)cc2/C1=C/c1c(N)n2oc(C)cc2nc1=O` was tested, and the Potency was “inactive”. In the case of `CC(=O)c1cccc(NC(=O)CSCc2ccccc2)c1`, the Potency is reported as inconclusive: 16.9 µM [inhibitor, partial curve]. `O=C1c2ccccc2C(=O)c2c(Nc3ccc(CCO)cc3)ccc(O)c21` was tested, and the Potency was inconclusive: 10.7 µM [inhibitor, partial curve]. In the case of `Cc1ccc2oc(-c3ccc(Cl)c(NC(=O)c4ccc(OC(C)C)cc4)c3)nc2c1`, the Potency is reported as inconclusive: 21.3 µM [inhibitor, partial curve]. `Oc1cc2ccccc2cc1-c1n[nH]c(=S)o1` was tested, and the Potency was inconclusive: 23.9 µM [inhibitor, single point]. With `O=C(NC1=NCCS1)c1ccc(Cl)c(S(=O)(=O)N2CCCCCC2)c1` the Potency was inconclusive: 21.3 µM [inhibitor, single point]. In the case of `CCOC(=O)c1ccc(NC(=S)NCc2ccco2)cc1`, the Potency is reported as inconclusive: 37.9 µM [inhibitor, partial curve, poor fit]. For `O=C(CSc1ncnc2nc[nH]c12)N1CCN(c2ccc(Cl)cc2)CC1`, the “activity change, negative = inhibition” value was inactive: 2.3%. `Cc1ccc(-c2oc3ccccc3c(=O)c2O)cc1` was tested, and the Potency was inconclusive: 30.1 µM [inhibitor, partial curve, poor fit]. `Cc1[nH]n(-c2ccccc2)c(=O)c1N=Nc1ccccc1C(=O)O` was tested, and the Potency was active: 16.9 µM. With `CCCOc1ccc(C(=O)NCCC(=O)NCCCC(=O)OCC)cc1` the “activity change, negative = inhibition” value was inactive: -3.1%. With `CCN(CC)CC(=O)Nn1c(C)nc2c(ncn2-c2ccccc2)c1=O` the “activity change, negative = inhibition” value was inactive: -0.529%. `Oc1ccc(N2CCN(c3ncnc4sc(-c5ccccc5)cc34)CC2)cc1` was tested, and the Potency was inconclusive: 16.9 µM [inhibitor, partial curve]. With `O=C(NNC(=O)C1CC1)c1cc2cc3ccccc3nc2s1` the Potency was inconclusive: 23.9 µM [inhibitor, single point]. For `COc1ccc(C2C(C(C)=O)=C(O)C(=O)N2c2nc3ccccc3s2)cc1OC` (stereo unspecified), the Potency was inconclusive: 15.1 µM [inhibitor, partial curve]. With `CC1CCN(C(=O)C2CCN(C(=O)c3cc4sccc4n3Cc3ccc(F)cc3)CC2)CC1` the “activity change, negative = inhibition” value was inactive: 4.79%. With `CCOC(=O)c1ccc(NC(=O)c2ccc(C)c(S(=O)(=O)N3CCOCC3)c2)cc1` the “activity change, negative = inhibition” value was inactive: -3.89%. In the case of `COC(=O)Cc1c(C)c2cc3c(c(C)c2oc1=O)OCN(CCc1ccc(OC)cc1)C3`, the “activity change, negative = inhibition” value is reported as inactive: 1.41%. For `O=C(Nc1ccccn1)c1ccc(Cl)c(S(=O)(=O)N2CCCC2)c1`, the Potency was inconclusive: 19 µM [inhibitor, partial curve]. With `COc1cc(CCC(=O)Nc2sccc2C#N)cc(OC)c1OC` the “activity change, negative = inhibition” value was inactive: 0.885%. In the case of `CC(C)C(=O)Nc1cccc(NC(=O)c2ccc(Cl)cc2Cl)c1`, the Potency is reported as inconclusive: 19 µM [inhibitor, partial curve]. For `Cc1ccccc1OCC(=O)O/N=C(\N)c1ccncc1`, the Potency was inconclusive: 16.9 µM [inhibitor, partial curve]. With `Cc1cc(C)c(NC(=O)Cn2nnc(-c3nc(-c4ccccc4)no3)c2N)c(C)c1` the “activity change, negative = inhibition” value was inactive: 0.486%. In the case of `C/C=C/c1ccc(OCC(=O)Nc2ccncc2)c(OC)c1`, the Potency is reported as inconclusive: 37.9 µM [inhibitor, single point]. In the case of `CC(=O)Nc1ccc(SCC(=O)c2cc(C)n(CC(F)(F)F)c2C)cc1`, the “activity change, negative = inhibition” value is reported as inactive: -17.5%. For `O=C(NCC1CCCO1)C1CCCN(S(=O)(=O)c2ccc(Cl)cc2)C1` (stereo unspecified), the “activity change, negative = inhibition” value was inactive: -0.64%. For `Cc1ccc2c(c1)[nH]c1c(=O)n(Cc3ccco3)cnc12`, the Potency was inconclusive: 3.38 µM [inhibitor, partial curve, poor fit]. For `O=C(Nc1cccc(S(=O)(=O)NC2=NCCC2)c1)c1c(F)cccc1Cl`, the “activity change, negative = inhibition” value was inactive: -0.933%. `CC(C)OC(=O)c1cc2ccccc2oc1=O` was tested, and the “activity change, negative = inhibition” value was inactive: -8.82%. In the case of `CN1C(=O)COc2ccc(C(=O)c3oc4ccccc4c3-c3cnc4c(c3)COc3ccccc3-4)cc21`, the Potency is reported as inconclusive: 0.757 µM [inhibitor, partial curve, poor fit]. For `C=CCC(CC=C)(CNC(=O)C(=O)Nc1ccc(C(=O)OCC)cc1)c1ccccc1`, the “activity change, negative = inhibition” value was inactive: -7.94%. `O=C(N/N=C/c1cccs1)c1n[nH]c2c1CCC2` was tested, and the Potency was active: 3.38 µM. `Cc1ccc(-c2nc3ccccn3c2Nc2ccc3c(c2)OCO3)o1` was tested, and the Potency was inconclusive: 16.9 µM [inhibitor, partial curve]. For `CSc1ncc(Cl)c(C(=O)Nc2ccc(C)c(C)c2)n1`, the Potency was inconclusive: 26.9 µM [inhibitor, partial curve, poor fit]. With `O=c1oc2cc(O)ccc2cc1-c1ccc(F)cc1` the Potency was inconclusive: 23.9 µM [inhibitor, single point]. In the case of `O=C(NCc1ccc(Cl)cc1)c1cnn2ccccc12`, the Potency is reported as active: 13.5 µM. With `Cc1ccc(C(=O)Nc2cccc(C(=O)O)c2)cc1S(=O)(=O)N1CCOCC1` the Potency was active: 1.07 µM. In the case of `COc1ccc(-n2cc(CNCCc3nc(C)cc(C)n3)c(-c3ccccc3Cl)n2)cc1`, the Potency is reported as inconclusive: 30.1 µM [inhibitor, single point]. For `CCOC(=O)c1cnc2ccc(OC)cc2c1Nc1ccc2c(c1)OCCO2`, the Potency was inconclusive: 23.9 µM [inhibitor, single point]. `N=C(N)SCc1nc2ccccc2c(=O)n1-c1ccccc1` was tested, and the Potency was inconclusive: 21.3 µM [inhibitor, single point] and inconclusive: 37.9 µM [inhibitor, single point]. With `CC1(C)CC(=O)C(N=Nc2ccc(OC(F)F)cc2)=C(O)C1` the Potency was active: 16.9 µM. With `COc1ccc2nc(NC(=O)c3ccccc3-c3ccccc3C(=O)O)sc2c1` the Potency was inconclusive: 37.9 µM [inhibitor, partial curve, poor fit]. `C/C(=N\OC(=O)c1ccc(Cl)cc1)c1nccs1` was tested, and the Potency was active: 0.478 µM. `O=C(Nc1ccc(S(=O)(=O)Nc2nccs2)cc1)c1cc(-c2ccccc2)nc2ccccc12` was tested, and the Potency was inconclusive: 26.9 µM [inhibitor, single point].
